Assay results from a collection of fitness landscapes (doi:10.1126/science.1257360).
This is one part of the list.

B1: PhoQ; a variant is named by its letters at X, in order, P23837 (parent)
chain: MKKLLRLFFPLSLRVRFLLATAAVVLVLSLAYGMVALIGYSVSFDKTTFRLLRGESNLFYTLAKWENNKLHVELPENIDKQSPTMTLIYDENGQLLWAQRDVPWLMKMIQPDWLKSNGFHEIEADVNDTSLLLSGDHSIQQQLQEVREDDDDAEMTHSVAVNVYPATSRMPKLTIVVVDTIPVELKSSYMVWSWFIYVLSANLLLVIPLLWVAAWWSLRPIEALAKEVRELEEHNRELLNPATTRELTSLVRNLNRLLKSERERYDKYRTTLTDLTHSLKTPLXXLQXXLRSLRSEKMSVSDAEPVMLEQISRISQQIGYYLHRASMRGGTLLSRELHPVAPLLDNLTSALNKVYQRKGVNISLDISPEISFVGEQNDFVEVMGNVLDNACKYCLEFVEISARQTDEHLYIVVEDDGPGIPLSKREVIFDRGQRVDTLRPGQGVGLAVAREITEQYEGKIVAGESMLGGARMEVIFGRQHSAPKDE

Variants of: B1
Assay: enrichment ratio after two sorts for PhoP signalling (ratio (wild type AVST 3.29)); higher = more functional
Conditions: with PhoP (E. coli)

| Variant | enrichment ratio |
| --- | --- |
| RAVQ | ≤ 0.25 |
| QCIP | ≤ 0.25 |
| NMWL | ≤ 0.25 |
| WLNP | ≤ 0.25 |
| YYVP | ≤ 0.25 |
| DCPG | ≤ 0.25 |
| SEWS | 2.54 |
| HMRE | ≤ 0.25 |
| SEKM | ≤ 0.25 |
| VQVK | ≤ 0.25 |
| NITL | ≤ 0.25 |
| TFLF | 0.343 |
| HGAA | ≤ 0.25 |
| QTWY | 8.93 |
| THTD | ≤ 0.25 |
| QGCM | 1.34 |
| HDIA | ≤ 0.25 |
| RPHN | ≤ 0.25 |
| YHWH | ≤ 0.25 |
| YKDA | ≤ 0.25 |
| QPWI | ≤ 0.25 |
| GLFG | ≤ 0.25 |
| LPWK | ≤ 0.25 |
| HQRT | ≤ 0.25 |

| Variant | enrichment ratio |
| --- | --- |
| NPYS | ≤ 0.25 |
| FMHM | ≤ 0.25 |
| LPLH | ≤ 0.25 |
| RIEE | ≤ 0.25 |
| ADIY | ≤ 0.25 |
| LRSD | ≤ 0.25 |
| HEDE | ≤ 0.25 |
| LTCY | ≤ 0.25 |
| SKVF | 4.2 |
| WSLC | ≤ 0.25 |
| MCTH | ≤ 0.25 |
| LIKH | ≤ 0.25 |
| RRTD | ≤ 0.25 |
| TANP | ≤ 0.25 |
| PDPF | ≤ 0.25 |
| LYQI | ≤ 0.25 |
| LVWS | ≤ 0.25 |
| FFRM | ≤ 0.25 |
| HDHQ | ≤ 0.25 |
| ETGV | ≤ 0.25 |
| PNCD | ≤ 0.25 |
| PRGM | ≤ 0.25 |
| VLDH | ≤ 0.25 |
| NTTK | ≤ 0.25 |

| Variant | enrichment ratio |
| --- | --- |
| TANS | 11.9 |
| YEMS | 14.7 |
| FVRG | ≤ 0.25 |
| AAHL | 0.456 |
| NEHI | ≤ 0.25 |
| AHHN | ≤ 0.25 |
| IQSM | ≤ 0.25 |
| FMIW | ≤ 0.25 |
| WGNF | ≤ 0.25 |
| RQEY | ≤ 0.25 |
| FLYL | ≤ 0.25 |
| FPHQ | ≤ 0.25 |
| VTEM | ≤ 0.25 |
| LPCQ | ≤ 0.25 |
| KHTQ | ≤ 0.25 |
| NKAT | ≤ 0.25 |
| MARW | ≤ 0.25 |
| KRGS | ≤ 0.25 |
| IIHC | ≤ 0.25 |
| VYVN | 0.45 |
| KFCN | ≤ 0.25 |
| VKWM | ≤ 0.25 |
| YRLE | ≤ 0.25 |
| GEMV | 5.64 |

| Variant | enrichment ratio |
| --- | --- |
| NPWF | ≤ 0.25 |
| LCVA | ≤ 0.25 |
| WRRD | ≤ 0.25 |
| SHTH | 0.595 |
| KVER | ≤ 0.25 |
| LMAS | ≤ 0.25 |
| VARK | 0.646 |
| NWKV | ≤ 0.25 |
| VTTK | ≤ 0.25 |
| KLEL | ≤ 0.25 |
| RKCW | ≤ 0.25 |
| LMDM | ≤ 0.25 |
| MLLD | ≤ 0.25 |
| WYAS | ≤ 0.25 |
| DTLL | ≤ 0.25 |
| YHPA | ≤ 0.25 |
| HQSI | ≤ 0.25 |
| DGVC | ≤ 0.25 |
| CSFC | ≤ 0.25 |
| MGTL | 6.38 |
| VLLC | ≤ 0.25 |
| GLIA | ≤ 0.25 |
| LKCK | ≤ 0.25 |
| QDNM | ≤ 0.25 |

| Variant | enrichment ratio |
| --- | --- |
| HSWG | ≤ 0.25 |
| SFTT | ≤ 0.25 |
| RIRI | ≤ 0.25 |
| IKSV | ≤ 0.25 |
| DLYC | ≤ 0.25 |
| YDNC | ≤ 0.25 |
| PRVK | ≤ 0.25 |
| IHER | ≤ 0.25 |
| SCAR | 4.56 |
| MHCT | ≤ 0.25 |
| CFIG | ≤ 0.25 |
| DEVK | ≤ 0.25 |
| FNQW | ≤ 0.25 |
| MMNF | ≤ 0.25 |
| TPFI | ≤ 0.25 |
| RFEA | ≤ 0.25 |
| WGCH | ≤ 0.25 |
| PRGI | ≤ 0.25 |
| HIVM | ≤ 0.25 |
| RGDE | ≤ 0.25 |
| HWTN | ≤ 0.25 |
| QEIE | ≤ 0.25 |
| HTDL | ≤ 0.25 |
| GDTG | ≤ 0.25 |

| Variant | enrichment ratio |
| --- | --- |
| KMHY | ≤ 0.25 |
| KNQM | ≤ 0.25 |
| WWPC | ≤ 0.25 |
| FGCW | ≤ 0.25 |
| PWRA | ≤ 0.25 |
| FQQH | ≤ 0.25 |
| MKGW | ≤ 0.25 |
| QGRY | ≤ 0.25 |
| RTSY | ≤ 0.25 |
| WVIF | ≤ 0.25 |
| TYDQ | ≤ 0.25 |
| TCPA | ≤ 0.25 |
| IKHG | ≤ 0.25 |
| LDAY | ≤ 0.25 |
| YIIF | ≤ 0.25 |
| PVSA | ≤ 0.25 |
| VLDF | ≤ 0.25 |
| IQRC | ≤ 0.25 |
| MDHQ | ≤ 0.25 |
| HNLW | ≤ 0.25 |
| MPQN | ≤ 0.25 |
| HAKA | ≤ 0.25 |
| IASQ | ≤ 0.25 |
| VNVD | ≤ 0.25 |

| Variant | enrichment ratio |
| --- | --- |
| GHGS | ≤ 0.25 |
| YRMQ | ≤ 0.25 |
| IKVT | ≤ 0.25 |
| THGG | ≤ 0.25 |
| WLPF | ≤ 0.25 |
| MWVM | ≤ 0.25 |
| GMRC | ≤ 0.25 |
| DYGW | ≤ 0.25 |
| NIPF | ≤ 0.25 |
| TREA | ≤ 0.25 |
| FEHY | ≤ 0.25 |
| MPYS | ≤ 0.25 |
| YRTR | ≤ 0.25 |
| HPFF | ≤ 0.25 |
| LGMM | 0.368 |
| FATI | 0.301 |
| TYLM | ≤ 0.25 |
| NPLI | ≤ 0.25 |
| PGMR | ≤ 0.25 |
| PKDI | ≤ 0.25 |
| TKHK | ≤ 0.25 |
| GKCC | ≤ 0.25 |
| TAQW | ≤ 0.25 |
| NRNQ | ≤ 0.25 |

| Variant | enrichment ratio |
| --- | --- |
| DEFI | ≤ 0.25 |
| MYDY | ≤ 0.25 |
| ETPA | ≤ 0.25 |
| IQPW | ≤ 0.25 |
| RDQQ | ≤ 0.25 |
| MNFR | ≤ 0.25 |
| EVHG | ≤ 0.25 |
| LRKG | 0.731 |
| KFHD | ≤ 0.25 |
| NPLK | ≤ 0.25 |
| HAKL | ≤ 0.25 |
| GGTM | 1.63 |
| EDLV | ≤ 0.25 |
| WYAW | ≤ 0.25 |
| VRRH | ≤ 0.25 |
| TEQV | 11 |
| RFEM | ≤ 0.25 |
| LPMS | ≤ 0.25 |
| TIRI | 2.01 |
| FSNI | ≤ 0.25 |
| VLPW | ≤ 0.25 |
| NWQG | ≤ 0.25 |
| KGGL | ≤ 0.25 |
| TIIC | ≤ 0.25 |

| Variant | enrichment ratio |
| --- | --- |
| DVLG | ≤ 0.25 |
| VSTR | ≤ 0.25 |
| AFDQ | ≤ 0.25 |
| DYVT | ≤ 0.25 |
| EGYM | ≤ 0.25 |
| PQCR | ≤ 0.25 |
| YWSF | ≤ 0.25 |
| DQYN | ≤ 0.25 |
| KYSH | ≤ 0.25 |
| FNRL | ≤ 0.25 |
| WVSS | ≤ 0.25 |
| ITGR | ≤ 0.25 |
| YSFA | ≤ 0.25 |
| MTPM | ≤ 0.25 |
| EMMA | ≤ 0.25 |
| NQAG | ≤ 0.25 |
| YYTL | ≤ 0.25 |
| PCMC | ≤ 0.25 |
| SMKA | ≤ 0.25 |
| MPFY | ≤ 0.25 |
| IQCY | ≤ 0.25 |
| GEPL | ≤ 0.25 |
| WFWT | ≤ 0.25 |
| SFNF | ≤ 0.25 |

| Variant | enrichment ratio |
| --- | --- |
| ALCD | 2.77 |
| WDKD | ≤ 0.25 |
| IKEV | ≤ 0.25 |
| ESSA | ≤ 0.25 |
| WMKL | ≤ 0.25 |
| KQIT | ≤ 0.25 |
| IHSC | ≤ 0.25 |
| PKCC | ≤ 0.25 |
| LCDF | ≤ 0.25 |
| QTDC | 6.63 |
| YNRY | ≤ 0.25 |
| NWNC | ≤ 0.25 |
| NESQ | ≤ 0.25 |
| HDWL | ≤ 0.25 |
| PLTL | ≤ 0.25 |
| DWHE | ≤ 0.25 |
| KHWG | ≤ 0.25 |
| SCNF | 14.3 |
| ELRM | ≤ 0.25 |
| QESC | 5.96 |
| HEDK | ≤ 0.25 |
| HQGR | ≤ 0.25 |
| TAGG | 3.74 |
| DTSA | ≤ 0.25 |

| Variant | enrichment ratio |
| --- | --- |
| VRHK | ≤ 0.25 |
| GKAV | ≤ 0.25 |
| THQR | ≤ 0.25 |
| LIEF | ≤ 0.25 |
| INKI | ≤ 0.25 |
| NSQS | ≤ 0.25 |
| PSSM | ≤ 0.25 |
| RGSN | ≤ 0.25 |
| HVPV | ≤ 0.25 |
| SRKS | ≤ 0.25 |
| WTKN | ≤ 0.25 |
| WRPQ | ≤ 0.25 |
| KRVP | ≤ 0.25 |
| LKEY | ≤ 0.25 |
| YMRP | ≤ 0.25 |
| DWFL | ≤ 0.25 |
| SMGE | 4.03 |
| WTVP | ≤ 0.25 |
| GCWN | ≤ 0.25 |
| SKNN | ≤ 0.25 |
| HHEF | ≤ 0.25 |
| YSSD | ≤ 0.25 |
| PRKE | ≤ 0.25 |
| APGH | ≤ 0.25 |

| Variant | enrichment ratio |
| --- | --- |
| ILSR | ≤ 0.25 |
| HMAM | ≤ 0.25 |
| FIPT | ≤ 0.25 |
| RKHH | ≤ 0.25 |
| FNIN | ≤ 0.25 |
| VNYN | ≤ 0.25 |
| SPTD | ≤ 0.25 |
| SWIY | ≤ 0.25 |
| HPIE | ≤ 0.25 |
| NQKP | ≤ 0.25 |
| YDPW | ≤ 0.25 |
| GFVL | ≤ 0.25 |
| LFNY | ≤ 0.25 |
| TMVK | ≤ 0.25 |
| DTWM | ≤ 0.25 |
| GRQR | ≤ 0.25 |
| AYRF | ≤ 0.25 |
| TACR | 14.8 |
| AYRK | ≤ 0.25 |
| RFGK | ≤ 0.25 |
| VAKA | ≤ 0.25 |
| NSCN | ≤ 0.25 |
| DAQD | ≤ 0.25 |
| IHDL | ≤ 0.25 |

| Variant | enrichment ratio |
| --- | --- |
| HHCV | ≤ 0.25 |
| APSS | ≤ 0.25 |
| VDPD | ≤ 0.25 |
| DSIA | ≤ 0.25 |
| FKEG | ≤ 0.25 |
| PDCS | ≤ 0.25 |
| VCYV | ≤ 0.25 |
| NPCN | ≤ 0.25 |
| PYLA | ≤ 0.25 |
| KRWC | ≤ 0.25 |
| IMCL | ≤ 0.25 |
| RHWQ | ≤ 0.25 |
| SLYP | 0.913 |
| PRSE | ≤ 0.25 |
| NHAA | ≤ 0.25 |
| DLYM | ≤ 0.25 |
| SYED | ≤ 0.25 |
| RQQG | ≤ 0.25 |
